Laboratory results reported in patent publication US20240059769A1 (BIOLOJIC DESIGN, published 2024).

Legend:
[1] = target: IL-13R/IL-4R receptor complex (human, UniProt P78552 22-427; P24394 26-825); assay: cell-based or functional assay
anti-IL-13 control = target: T1, anti-IL-13 control; assay: competition ELISA: 20 nM antibody pre-incubated with soluble hIL-13 (0.78-200 nM), then on a plate coated with hIL-13; bound IgG detected with anti-human Fc-HRP
T1 construct: also called anti-IL-13 control antibody

BDG33.023 = target: T2, BDG33.023; assay: as above
T2 construct: standard IgG; also called BGD33.023; BDG33.0023
T2 sequence (VH, as listed by the source, chain 1 of 2): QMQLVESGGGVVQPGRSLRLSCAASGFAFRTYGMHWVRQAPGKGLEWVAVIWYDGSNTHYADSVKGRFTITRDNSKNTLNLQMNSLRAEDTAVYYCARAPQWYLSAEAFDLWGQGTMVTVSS
T2 sequence (VL, as listed by the source, chain 2 of 2): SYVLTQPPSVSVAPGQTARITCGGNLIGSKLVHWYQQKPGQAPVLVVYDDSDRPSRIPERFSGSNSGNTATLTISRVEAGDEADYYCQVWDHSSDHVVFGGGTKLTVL

EC50, HEK-Blue IL-4/IL-13 reporter (SEAP) [1]: ~0.12 nM
IC50 (read off the curve) (anti-IL-13 control): ~10 nM
IC50 (read off the curve) (BDG33.023): ~20 nM
B1: recombinant human IL-13 (ligand)
chain: not shown
notes: also called rh-IL-13; hIL-13
